This is one part of the list. Single values are uncertain, as repeats are few or missing.
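Also: cell number obtained by counting DAPI-stained nuclei in high-throughput microscope images with image analysis software, screen run in 1,536-well plates.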

This test deals with SkMel28. The test is described as follows: cell count relative to DMSO control; melanoma cells; higher = more viable cells. To be noted: library dose: low library concentration; 72 h.
With `CC(=O)O[C@@]12CO[C@@H]1C[C@H](O)[C@@]1(C)C(=O)[C@H](O)C3=C(C)[C@@H](OC(=O)[C@H](O)[C@@H](NC(=O)OC(C)(C)C)c4ccccc4)C[C@@](O)([C@@H](OC(=O)c4ccccc4)[C@H]21)C3(C)C` [Docetaxel] + CN(NC(=O)CC(=O)NN(C)C(=S)c1ccccc1)C(=S)c1ccccc1 [STA4783] (first compound 0.0001 µM, partner dose 0.006 µM), the cell count is 43%.

In the case of `CC(=O)O[C@@]12CO[C@@H]1C[C@H](O)[C@@]1(C)C(=O)[C@H](O)C3=C(C)[C@@H](OC(=O)[C@H](O)[C@@H](NC(=O)OC(C)(C)C)c4ccccc4)C[C@@](O)([C@@H](OC(=O)c4ccccc4)[C@H]21)C3(C)C` [Docetaxel] + Cc1ccc(NC(=O)c2cccc(N(C)C)c2)cc1NC(=O)c1ccc(O)cc1 [ZM336372] (first compound 0.0001 µM, partner dose 2 µM), the cell count is 50.1%.

The compound `Nc1ncn([C@H]2C[C@H](O)[C@@H](CO)O2)c(=O)n1` [decitabine] + CO[C@@H]1[C@H](N(C)C(=O)c2ccccc2)C[C@H]2O[C@]1(C)n1c3ccccc3c3c4c(c5c6ccccc6n2c5c31)C(=O)NC4 [Midostaurin] (first compound 0.1 µM, partner dose 0.08 µM) gave a cell count of 114%.

For the compound `Nc1ccn([C@@H]2O[C@H](CO)[C@@H](O)C2(F)F)c(=O)n1` [gemcitabine] + CCc1ccc(CCOc2ccc(CC3SC(=O)NC3=O)cc2)nc1 [pioglitazone] (first compound 0.0004 µM, partner dose 2 µM), the cell count was 85.3%.

Consider `CC(=O)c1c(C)c2cnc(Nc3ccc(N4CCNCC4)cn3)nc2n(C2CCCC2)c1=O` [palbociclib] + C=CCn1c(=O)c2cnc(Nc3ccc(N4CCN(C)CC4)cc3)nc2n1-c1cccc(C(C)(C)O)n1 [MK1775] (first compound 0.04 µM, partner dose 0.02 µM), for which the cell count was determined as 78.6%.

For `CC(=O)c1c(C)c2cnc(Nc3ccc(N4CCNCC4)cn3)nc2n(C2CCCC2)c1=O` [palbociclib] + Oc1cc(-c2nc(-c3ccccc3)[nH]c2-c2ccncc2)ccc1Cl [L779450] (first compound 0.04 µM, partner dose 0.2 µM), the cell count is 62.2%.

In the case of `Nc1ncn([C@H]2C[C@H](O)[C@@H](CO)O2)c(=O)n1` [decitabine] + c1cc(-c2cnn3cc(-c4ccc(OCCN5CCCCC5)cc4)cnc23)ccn1 [Dorsomorphin] (first compound 0.1 µM, partner dose 0.4 µM), the cell count was 91%.

Turning to `Nc1ncn([C@H]2C[C@H](O)[C@@H](CO)O2)c(=O)n1` [decitabine] + O=C(Nc1ccccc1)c1cc([N+](=O)[O-])ccc1Cl [GW9662] (first compound 0.1 µM, partner dose 2 µM), the cell count was 96%.

Regarding `Nc1ncn([C@H]2C[C@H](O)[C@@H](CO)O2)c(=O)n1` [decitabine] + O=C(Nc1cccc(Cl)c1)Nc1ncc(CCNc2ncnc3ccsc23)s1 [SNS314] (first compound 0.1 µM, partner dose 0.0008 µM), the cell count is 85%.

Regarding `CC(=O)O[C@@]12CO[C@@H]1C[C@H](O)[C@@]1(C)C(=O)[C@H](O)C3=C(C)[C@@H](OC(=O)[C@H](O)[C@@H](NC(=O)OC(C)(C)C)c4ccccc4)C[C@@](O)([C@@H](OC(=O)c4ccccc4)[C@H]21)C3(C)C` [Docetaxel] + Cn1cncc1[C@@](N)(c1ccc(Cl)cc1)c1ccc2c(c1)c(-c1cccc(Cl)c1)cc(=O)n2C [tipifarnib] (first compound 0.0001 µM, partner dose 0.01 µM), the cell count was found to be 46%.

With `Nc1nc(F)nc2c1ncn2[C@@H]1O[C@H](CO)[C@@H](O)[C@@H]1O` [fludarabine] + CC1(C)NC(=O)N(c2ccc([N+](=O)[O-])c(C(F)(F)F)c2)C1=O [nilutamide] (first compound 0.2 µM, partner dose 1 µM), the cell count turned out to be 73.1%.

Regarding `Nc1ncn([C@H]2C[C@H](O)[C@@H](CO)O2)c(=O)n1` [decitabine] + O=C(CCCCCCC(=O)Nc1ccccc1)NO [vorinostat] (first compound 0.1 µM, partner dose 0.08 µM), the cell count came to 85.5%.

`CC(=O)c1c(C)c2cnc(Nc3ccc(N4CCNCC4)cn3)nc2n(C2CCCC2)c1=O` [palbociclib] + COc1ccc(-c2ccc3c(N4CCOCC4)nc(N4C[C@@H](C)O[C@@H](C)C4)nc3n2)cc1CO [KU0063794] (first compound 0.04 µM, partner dose 0.02 µM): the cell count turned out to be 69.5%.

On to `Nc1nc(F)nc2c1ncn2[C@@H]1O[C@H](CO)[C@@H](O)[C@@H]1O` [fludarabine] + O=C(O)C(=O)Nc1sc2c(c1C(=O)O)CCNC2 [TCS401] (first compound 0.2 µM, partner dose 1.66667 µM), for which the cell count stood at 80.5%.

Consider `Nc1ncn([C@H]2C[C@H](O)[C@@H](CO)O2)c(=O)n1` [decitabine] + COc1cc(Nc2ncc(F)c(Nc3ccc4c(n3)NC(=O)C(C)(C)O4)n2)cc(OC)c1OC [Tamatinib] (first compound 0.1 µM, partner dose 0.4 µM), for which the cell count came out at 81.7%.

For the compound `Nc1nc(F)nc2c1ncn2[C@@H]1O[C@H](CO)[C@@H](O)[C@@H]1O` [fludarabine] + CCc1ccc(CCOc2ccc(CC3SC(=O)NC3=O)cc2)nc1 [pioglitazone] (first compound 0.2 µM, partner dose 2 µM), the cell count came out at 89.6%.

`Nc1ccn([C@@H]2O[C@H](CO)[C@@H](O)C2(F)F)c(=O)n1` [gemcitabine] + O=C(Nc1cccc(Cl)c1)Nc1ncc(CCNc2ncnc3ccsc23)s1 [SNS314] (first compound 0.0004 µM, partner dose 0.0008 µM): the cell count is 99.5%.

In turn, `Nc1ccn([C@@H]2O[C@H](CO)[C@@H](O)C2(F)F)c(=O)n1` [gemcitabine] + CN(C)S(=O)(=O)c1ccc2c(c1)/C(=C/c1cc3c([nH]1)CCCC3)C(=O)N2 [SU6656] (first compound 0.0004 µM, partner dose 0.4 µM) gave a cell count of 84%.

`Nc1ncn([C@H]2C[C@H](O)[C@@H](CO)O2)c(=O)n1` [decitabine] + COc1cc(N2CCC(N3CCN(C)CC3)CC2)ccc1Nc1ncc(Cl)c(Nc2ccccc2S(=O)(=O)C(C)C)n1 [NVP-TAE684] (first compound 0.1 µM, partner dose 0.08 µM) had a cell count of 68.6%.

As to `CC(=O)O[C@@]12CO[C@@H]1C[C@H](O)[C@@]1(C)C(=O)[C@H](O)C3=C(C)[C@@H](OC(=O)[C@H](O)[C@@H](NC(=O)OC(C)(C)C)c4ccccc4)C[C@@](O)([C@@H](OC(=O)c4ccccc4)[C@H]21)C3(C)C` [Docetaxel] + CCCCCCCCCCCC1=C(O)C(=O)C=C(O)C1=O [Embelin] (first compound 0.0001 µM, partner dose 1.2 µM), the cell count was 50.2%.

As to `CC(=O)c1c(C)c2cnc(Nc3ccc(N4CCNCC4)cn3)nc2n(C2CCCC2)c1=O` [palbociclib] + O=C(Nc1cccc(Cl)c1)Nc1ncc(CCNc2ncnc3ccsc23)s1 [SNS314] (first compound 0.04 µM, partner dose 0.0008 µM), the cell count came to 84.1%.

The compound `CC(=O)O[C@@]12CO[C@@H]1C[C@H](O)[C@@]1(C)C(=O)[C@H](O)C3=C(C)[C@@H](OC(=O)[C@H](O)[C@@H](NC(=O)OC(C)(C)C)c4ccccc4)C[C@@](O)([C@@H](OC(=O)c4ccccc4)[C@H]21)C3(C)C` [Docetaxel] + N#Cc1c(O)c2c(-c3ccc(-c4ccccc4O)cc3)csc2[nH]c1=O [A769662] (first compound 0.0001 µM, partner dose 2 µM) yielded a cell count of 44.2%.

The compound `Nc1ccn([C@@H]2O[C@H](CO)[C@@H](O)C2(F)F)c(=O)n1` [gemcitabine] + CC(C)CCN1c2nc(Nc3cc(F)c(O)c(F)c3)ncc2N(C)C(=O)C1C [BID1870] (first compound 0.0004 µM, partner dose 0.2 µM) had a cell count of 97.6%.

For `Nc1nc(F)nc2c1ncn2[C@@H]1O[C@H](CO)[C@@H](O)[C@@H]1O` [fludarabine] + N#Cc1c(O)c2c(-c3ccc(-c4ccccc4O)cc3)csc2[nH]c1=O [A769662] (first compound 0.2 µM, partner dose 2 µM), the cell count was determined as 56.8%.

In turn, `Nc1ccn([C@@H]2O[C@H](CO)[C@@H](O)C2(F)F)c(=O)n1` [gemcitabine] + Cc1cc([N+](=O)[O-])ccc1NS(=O)(=O)c1cc(Cl)ccc1Cl [FH535] (first compound 0.0004 µM, partner dose 1 µM) showed a cell count of 102%.

As to `Nc1ccn([C@@H]2O[C@H](CO)[C@@H](O)C2(F)F)c(=O)n1` [gemcitabine] + Cc1cc(N2CCOCC2)cc2[nH]c(-c3c(NC[C@@H](O)c4cccc(Cl)c4)cc[nH]c3=O)nc12 [BMS536924] (first compound 0.0004 µM, partner dose 0.2 µM), the cell count amounted to 102%.

Take `Nc1nc(F)nc2c1ncn2[C@@H]1O[C@H](CO)[C@@H](O)[C@@H]1O` [fludarabine] + CO[C@@H]1[C@H](N(C)C(=O)c2ccccc2)C[C@H]2O[C@]1(C)n1c3ccccc3c3c4c(c5c6ccccc6n2c5c31)C(=O)NC4 [Midostaurin] (first compound 0.2 µM, partner dose 0.08 µM): the cell count turned out to be 66.1%.

As for `Nc1ncn([C@H]2C[C@H](O)[C@@H](CO)O2)c(=O)n1` [decitabine] + O=C1NC(=O)/C(=C/c2ccc(-c3ccc(F)cc3O)o2)S1 [AS252424] (first compound 0.1 µM, partner dose 1 µM), the cell count turned out to be 74.6%.
